Measurements published in the supplement of paper PMC4967469.
IC50 is the fitted dose that halves viability relative to control wells, and lower means more sensitive; where the fit passes the top or lowest dose, that dose stands as a limit. AUC is the area under the same curve over the 256-fold range up to the top dose, as a fraction; values near 1 show little effect. For some assays here: A top dose marked as inferred was derived from the fitted curves, not read from the paper. For some assays here: Where an entry number is given, a second screen of the drug exists; the two often differ.

Tests used:
Experiment in all cases: Viability of human cancer cell lines after 72 h of drug (GDSC screen)
[1] = compound: CC1=C(/C=C/C(C)=C/C=C/C(C)=C/C(=O)O)C(C)(C)CCC1 [Tretinoin]; settings: top dose 10 µM; top dose inferred
Procedure: (§1)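 Human cancer cell lines in 384-well plates, medium with 10% serum, drug for 72 h over a 256-fold dose range (nine 2-fold or five 4-fold steps up to the top dose). Adherent lines were fixed and stained with the nucleic acid dye Syto60, suspension lines read with resazurin; signal relative to control wells, capped at 0 and 100%. One two-parameter sigmoid per drug and line, fitted in a mixed model over all curves with the slope shared within a line.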

[2] = compound: CCn1c(-c2nonc2N)nc2c(C#CC(C)(C)O)ncc(OC[C@H]3CCCNC3)c21 [GSK690693]; settings: top dose 10.24 µM; top dose inferred
Procedure: as §1

[3] = compound: COc1cc2c(NC3CCN(C(C)C)CC3)nc(C3CCCCC3)nc2cc1OCCCN1CCCC1 [UNC0638]
Procedure: as §1

[4] = compound: Cc1cccc(-c2[nH]c(C(C)(C)C)nc2-c2ccc3c(c2)OCO3)n1 [SB-505124]; settings: top dose 10 µM; top dose inferred
Procedure: as §1

[5] = compound: O=C(NCCCNc1nc(Nc2cccc(NC(=O)N3CCCC3)c2)ncc1I)c1cccs1 [BX-795]; settings: top dose 5 µM; top dose inferred
Procedure: as §1

[6] = compound: Oc1cccc(-c2nc(N3CCOCC3)c3oc4ncccc4c3n2)c1 [PI-103]; settings: top dose 10.24 µM
Procedure: as §1

[7] = top dose 20 µM, screen: GDSC drug entry 1236, top dose inferred
[8] = top dose 40 µM, screen: GDSC drug entry 245

MDA-MB-453 (breast, adherent)
AUC [1]: 0.986
IC50 [1]: > 10 µM
AUC [2]: 0.673
IC50 [2]: 2.06 µM
AUC [3, 7]: 0.984
IC50 [3, 7]: > 20 µM
AUC [3, 8]: 0.717
IC50 [3, 8]: 11.1 µM
AUC [4]: 0.965
IC50 [4]: > 10 µM
AUC [5]: 0.973
IC50 [5]: > 5 µM
AUC [6]: 0.438
IC50 [6]: 0.426 µM

MDA-MB-468 (breast, adherent)
AUC [1]: 0.983
IC50 [1]: > 10 µM
AUC [2]: 0.845
IC50 [2]: 6.98 µM
AUC [3, 7]: 0.839
IC50 [3, 7]: 12.9 µM
AUC [3, 8]: 0.72
IC50 [3, 8]: 10.2 µM
AUC [4]: 0.987
IC50 [4]: > 10 µM
AUC [5]: 0.754
IC50 [5]: 1.62 µM
AUC [6]: 0.66
IC50 [6]: 1.75 µM

MEL-JUSO (melanoma, adherent)
AUC [1]: 0.984
IC50 [1]: > 10 µM
AUC [2]: 0.95
IC50 [2]: > 10.2 µM
AUC [3, 7]: 0.779
IC50 [3, 7]: 9.2 µM
AUC [3, 8]: 0.547
IC50 [3, 8]: 3.42 µM
AUC [4]: 0.981
IC50 [4]: > 10 µM
AUC [5]: 0.842
IC50 [5]: 4.13 µM
AUC [6]: 0.568
IC50 [6]: 1.01 µM

MES-SA (uterus, adherent)
AUC [1]: 0.972
IC50 [1]: > 10 µM
AUC [2]: 0.984
IC50 [2]: > 10.2 µM
AUC [3, 7]: 0.89
IC50 [3, 7]: 17.1 µM
AUC [3, 8]: 0.992
IC50 [3, 8]: > 40 µM
AUC [4]: 0.961
IC50 [4]: > 10 µM
AUC [5]: 0.844
IC50 [5]: 2.83 µM
AUC [6]: 0.962
IC50 [6]: > 10.2 µM

MFE-280 (endometrium, adherent)
AUC [1]: 0.982
IC50 [1]: > 10 µM
AUC [2]: 0.764
IC50 [2]: 4.71 µM
AUC [3, 7]: 0.848
IC50 [3, 7]: > 20 µM
AUC [3, 8]: 0.885
IC50 [3, 8]: > 40 µM
AUC [4]: 0.915
IC50 [4]: > 10 µM
AUC [5]: 0.975
IC50 [5]: > 5 µM
AUC [6]: 0.733
IC50 [6]: 3.58 µM

MFE-296 (endometrium, adherent)
AUC [1]: 0.956
IC50 [1]: > 10 µM
AUC [2]: 0.808
IC50 [2]: 5.8 µM
AUC [3, 7]: 0.9
IC50 [3, 7]: > 20 µM
AUC [3, 8]: 0.97
IC50 [3, 8]: > 40 µM
AUC [4]: 0.943
IC50 [4]: > 10 µM
AUC [5]: 0.877
IC50 [5]: > 5 µM
AUC [6]: 0.85
IC50 [6]: 8.65 µM

MG-63 (osteosarcoma, adherent)
AUC [1]: 0.935
IC50 [1]: > 10 µM
AUC [2]: 0.984
IC50 [2]: > 10.2 µM
AUC [3, 7]: 0.914
IC50 [3, 7]: > 20 µM
AUC [3, 8]: 0.886
IC50 [3, 8]: > 40 µM
AUC [4]: 0.982
IC50 [4]: > 10 µM
AUC [5]: 0.752
IC50 [5]: 1.9 µM
AUC [6]: 0.984
IC50 [6]: > 10.2 µM

MHH-ES-1 (Ewing sarcoma, adherent)
AUC [1]: 0.98
IC50 [1]: > 10 µM
AUC [2]: 0.895
IC50 [2]: > 10.2 µM
AUC [3, 7]: 0.739
IC50 [3, 7]: 5.95 µM
AUC [3, 8]: 0.676
IC50 [3, 8]: 7.71 µM
AUC [4]: 0.958
IC50 [4]: > 10 µM
AUC [5]: 0.771
IC50 [5]: 1.89 µM
AUC [6]: 0.39
IC50 [6]: 0.32 µM

MOG-G-CCM (glioma, adherent)
AUC [1]: 0.909
IC50 [1]: > 10 µM
AUC [2]: 0.913
IC50 [2]: > 10.2 µM
AUC [3, 7]: 0.817
IC50 [3, 7]: 13.6 µM
AUC [3, 8]: 0.711
IC50 [3, 8]: 11 µM
AUC [4]: 0.958
IC50 [4]: > 10 µM
AUC [5]: 0.795
IC50 [5]: 2.76 µM
AUC [6]: 0.417
IC50 [6]: 0.365 µM

MOG-G-UVW (glioma, adherent)
AUC [1]: 0.895
IC50 [1]: > 10 µM
AUC [2]: 0.971
IC50 [2]: > 10.2 µM
AUC [3, 7]: 0.846
IC50 [3, 7]: 14 µM
AUC [3, 8]: 0.732
IC50 [3, 8]: 11.2 µM
AUC [4]: 0.947
IC50 [4]: > 10 µM
AUC [5]: 0.79
IC50 [5]: 2.16 µM
AUC [6]: 0.515
IC50 [6]: 0.701 µM

MS751 (cervix, adherent)
AUC [1]: 0.979
IC50 [1]: > 10 µM
AUC [2]: 0.99
IC50 [2]: > 10.2 µM
AUC [3, 7]: 0.909
IC50 [3, 7]: > 20 µM
AUC [3, 8]: 0.767
IC50 [3, 8]: 13.7 µM
AUC [4]: 0.977
IC50 [4]: > 10 µM
AUC [5]: 0.925
IC50 [5]: > 5 µM
AUC [6]: 0.989
IC50 [6]: > 10.2 µM

NB12 (neuroblastoma, adherent)
AUC [1]: 0.98
IC50 [1]: > 10 µM
AUC [2]: 0.921
IC50 [2]: > 10.2 µM
AUC [3, 7]: 0.965
IC50 [3, 7]: > 20 µM
AUC [3, 8]: 0.806
IC50 [3, 8]: 29.5 µM
AUC [4]: 0.937
IC50 [4]: > 10 µM
AUC [5]: 0.874
IC50 [5]: > 5 µM
AUC [6]: 0.707
IC50 [6]: 3.04 µM

NCC021 (kidney, adherent)
AUC [1]: 0.975
IC50 [1]: > 10 µM
AUC [2]: 0.946
IC50 [2]: > 10.2 µM
AUC [3, 7]: 0.958
IC50 [3, 7]: > 20 µM
AUC [3, 8]: 0.853
IC50 [3, 8]: 39.7 µM
AUC [4]: 0.973
IC50 [4]: > 10 µM
AUC [5]: 0.729
IC50 [5]: 1.59 µM
AUC [6]: 0.446
IC50 [6]: 0.444 µM

NCI-H28 (mesothelioma, adherent)
AUC [1]: 0.939
IC50 [1]: > 10 µM
AUC [2]: 0.968
IC50 [2]: > 10.2 µM
AUC [3, 7]: 0.786
IC50 [3, 7]: 11.7 µM
AUC [3, 8]: 0.849
IC50 [3, 8]: > 40 µM
AUC [4]: 0.978
IC50 [4]: > 10 µM
AUC [5]: 0.799
IC50 [5]: 3.31 µM
AUC [6]: 0.919
IC50 [6]: > 10.2 µM

NCI-H358 (lung adenocarcinoma, adherent)
AUC [1]: 0.946
IC50 [1]: > 10 µM
AUC [2]: 0.934
IC50 [2]: > 10.2 µM
AUC [3, 7]: 0.939
IC50 [3, 7]: > 20 µM
AUC [3, 8]: 0.75
IC50 [3, 8]: 14.3 µM
AUC [4]: 0.973
IC50 [4]: > 10 µM
AUC [5]: 0.976
IC50 [5]: > 5 µM
AUC [6]: 0.44
IC50 [6]: 0.431 µM

NCI-H460 (large cell lung carcinoma, adherent)
AUC [1]: 0.99
IC50 [1]: > 10 µM
AUC [2]: 0.99
IC50 [2]: > 10.2 µM
AUC [3, 7]: 0.862
IC50 [3, 7]: 14.5 µM
AUC [3, 8]: 0.952
IC50 [3, 8]: > 40 µM
AUC [4]: 0.989
IC50 [4]: > 10 µM
AUC [5]: 0.841
IC50 [5]: 3.01 µM
AUC [6]: 0.989
IC50 [6]: > 10.2 µM
